Measured values reported in the supplement of paper PMC4604168 (melanoma cell lines).
The list shows a part of the results. Most values come without repeats; read them as rough.
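Note: cells treated in 1,536-well plates, then fixed and DAPI-stained, with nuclei counted from automated high-throughput microscope images.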

What follows are compounds tested on WM3619 (assay: cell count relative to DMSO control; melanoma cells; higher = more viable cells). Conditions: library dose: standard library concentration; 72 h.
`CCc1ccc(CCOc2ccc(CC3SC(=O)NC3=O)cc2)nc1` (stereo unspecified) [pioglitazone] + N#Cc1c(O)c2c(-c3ccc(-c4ccccc4O)cc3)csc2[nH]c1=O [A769662] (first compound 10 µM, partner dose 10 µM) showed a cell count of 86.3%.
In the case of `COc1cc2c(Oc3ccc4[nH]c(C)cc4c3F)ncnc2cc1OCCCN1CCCC1` [cediranib] + O=C1NC(=O)/C(=C/c2ccc(-c3ccc(F)cc3O)o2)S1 [AS252424] (first compound 2 µM, partner dose 5 µM), the cell count is reported as 77.7%.
In the case of `CN(NC(=O)CC(=O)NN(C)C(=S)c1ccccc1)C(=S)c1ccccc1` + Oc1cc(-c2nc(-c3ccccc3)[nH]c2-c2ccncc2)ccc1Cl [L779450] (first compound 0.03 µM, partner dose 1 µM), the cell count is reported as 7.14%.
In the case of `CN(NC(=O)CC(=O)NN(C)C(=S)c1ccccc1)C(=S)c1ccccc1` + Oc1nc(-c2ccc(C(F)(F)F)cc2)nc2c1CSCC2 [XAV939] (first compound 0.03 µM, partner dose 10 µM), the cell count is reported as 20.9%.
For `COc1cc2c(Oc3ccc4[nH]c(C)cc4c3F)ncnc2cc1OCCCN1CCCC1` [cediranib] + O=C(Nc1ccccc1)c1cc([N+](=O)[O-])ccc1Cl [GW9662] (first compound 2 µM, partner dose 10 µM), the cell count was 44.6%.
`CCc1ccc(CCOc2ccc(CC3SC(=O)NC3=O)cc2)nc1` (stereo unspecified) [pioglitazone] + COc1ccc(-c2ccc3c(N4CCOCC4)nc(N4C[C@@H](C)O[C@@H](C)C4)nc3n2)cc1CO [KU0063794] (first compound 10 µM, partner dose 0.1 µM) was tested, and the cell count was 71.6%.
